Test results taken from a collection of fitness landscapes (doi:10.1016/j.celrep.2020.107928).
Over roughly 81,000 sequences, “one-hybrid fitness for binding NBS DNA” has its median near -0.1; the highest 2% begin near 0.36. Some of the results follow.

B1: Caulobacter ParB omega fusion; a variant is named by its letters at X, in order, B8GW30 (parent)
chain: MESVVVGEPGMSEGRRGLGRGLSALLGEVDAAPAQAPGEQLGGSREAPIEILQRNPDQPRRTFREEDLEDLSNSIREKGVLQPILVRPSPDTAGEYQIVAGERAWRAAQRAGLKTVPIMVRELDDLAVLEIGIIENVQRADLNVLEEALSYKVLMEKFERTQENIAQTIGKSXSHVANXMRLLXLPDEVQSYLVSGELTAXHARAIAAAADPVALAKQIIEGGLSVRETEALARKAPNLSAGKSKGGRPPRVKDTDTQALESDLSSVLGLDVSIDHRGSTGTLTITYATLEQLDDLCNRLTRGI

Variants of: B1
Assay: one-hybrid fitness for binding NBS DNA (the Noc-binding site; scaled: cognate 1, non-cognate 0); higher = stronger binding
Settings: with NBS DNA site
How it was run: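 The reporter was HIS3, with the binding site 19 bp from the promoter, in E. coli USO used for bacterial one-hybrid selection of Caulobacter ParB libraries with four specificity codons randomised. Growth was on M9 lacking histidine, with 0.1 mM IPTG and 5 mM 3-AT, for 48 hours at 37°C. Illumina sequencing covered plasmids before and after selection; three replicate libraries were pooled and variants with under 10 reads dropped. A fitness score is the log change in variant-to-wild-type read ratio, rescaled to the cognate and non-cognate references.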

Row | Variant | one-hybrid fitness for binding NBS DNA
1 | ITAR | ≤ 0.2
2 | DEFG | ≤ 0.2
3 | DEYC | ≤ 0.2
4 | KLWS | ≤ 0.2
5 | LCSS | ≤ 0.2
6 | RNQQ | ≤ 0.2
7 | WKRS | ≤ 0.2
8 | FRHV | ≤ 0.2
9 | NYIR | ≤ 0.2
10 | DELR | ≤ 0.2
11 | AAIV | ≤ 0.2
12 | YTSW | ≤ 0.2
13 | GHRV | ≤ 0.2
14 | KCAG | ≤ 0.2
15 | SVMC | ≤ 0.2
16 | QVQG | ≤ 0.2
17 | QRSC | 0.366
18 | IDTL | ≤ 0.2
19 | ILVR | ≤ 0.2
20 | SRNG | ≤ 0.2
21 | HQEA | ≤ 0.2
22 | IPIS | ≤ 0.2
23 | IQFM | ≤ 0.2
24 | DLKL | ≤ 0.2
25 | IGDN | ≤ 0.2

Row | Variant | one-hybrid fitness for binding NBS DNA
26 | ARWW | ≤ 0.2
27 | QRVK | 0.218
28 | PLWV | ≤ 0.2
29 | RHYC | ≤ 0.2
30 | HKLT | ≤ 0.2
31 | SGKC | ≤ 0.2
32 | MNHS | ≤ 0.2
33 | MSHI | ≤ 0.2
34 | WCDT | ≤ 0.2
35 | VNGN | ≤ 0.2
36 | AKHR | ≤ 0.2
37 | ILPG | ≤ 0.2
38 | NYAR | ≤ 0.2
39 | QCQH | 0.222
40 | NDTS | ≤ 0.2
41 | SQDF | ≤ 0.2
42 | RYHA | ≤ 0.2
43 | HMVC | ≤ 0.2
44 | SPVV | ≤ 0.2
45 | RRTY | 0.378
46 | QWHV | ≤ 0.2
47 | MNQR | ≤ 0.2
48 | TLGT | ≤ 0.2
49 | KFPG | ≤ 0.2
50 | AISE | ≤ 0.2

Row | Variant | one-hybrid fitness for binding NBS DNA
51 | GLLH | ≤ 0.2
52 | CRLL | ≤ 0.2
53 | MYTR | ≤ 0.2
54 | FWRW | ≤ 0.2
55 | GVYR | ≤ 0.2
56 | CTNG | ≤ 0.2
57 | HWEI | ≤ 0.2
58 | TSSC | ≤ 0.2
59 | IGHC | ≤ 0.2
60 | TNMV | ≤ 0.2
61 | VSPT | ≤ 0.2
62 | HDDG | ≤ 0.2
63 | SIWA | ≤ 0.2
64 | TESL | ≤ 0.2
65 | GCKP | ≤ 0.2
66 | YVPR | 0.264
67 | SNPM | ≤ 0.2
68 | LRTA | ≤ 0.2
69 | SAFT | ≤ 0.2
70 | PLQS | ≤ 0.2
71 | SWGR | ≤ 0.2
72 | MRGG | ≤ 0.2
73 | EFAT | ≤ 0.2
74 | QASC | ≤ 0.2
75 | KCSL | ≤ 0.2

Row | Variant | one-hybrid fitness for binding NBS DNA
76 | SRTH | ≤ 0.2
77 | CMTT | ≤ 0.2
78 | PGME | ≤ 0.2
79 | ISRH | ≤ 0.2
80 | PMTS | ≤ 0.2
81 | AHML | ≤ 0.2
82 | ILTI | ≤ 0.2
83 | YHPA | ≤ 0.2
84 | RTYR | 0.522
85 | RVLN | ≤ 0.2
86 | ILRT | ≤ 0.2
87 | NMDL | ≤ 0.2
88 | ANMT | ≤ 0.2
89 | PYTS | ≤ 0.2
90 | ARWS | ≤ 0.2
91 | SMEP | ≤ 0.2
92 | EMVL | ≤ 0.2
93 | QQSN | ≤ 0.2
94 | LHTQ | ≤ 0.2
95 | MITT | ≤ 0.2
96 | LYTC | ≤ 0.2
97 | TERA | ≤ 0.2
98 | VITT | ≤ 0.2
99 | RLYQ | ≤ 0.2
100 | TKAW | ≤ 0.2

Row | Variant | one-hybrid fitness for binding NBS DNA
101 | TKSN | ≤ 0.2
102 | RGVH | ≤ 0.2
103 | WHRS | ≤ 0.2
104 | LETF | ≤ 0.2
105 | YNLA | ≤ 0.2
106 | PFIT | ≤ 0.2
107 | RYDT | 0.204
108 | QGLC | ≤ 0.2
109 | LPRM | ≤ 0.2
110 | DWDR | ≤ 0.2
111 | DLIM | ≤ 0.2
112 | GLKY | ≤ 0.2
113 | GMGG | ≤ 0.2
114 | IDLG | ≤ 0.2
115 | LNEC | ≤ 0.2
116 | RAQI | ≤ 0.2
117 | KNTM | ≤ 0.2
118 | NTKG | ≤ 0.2
119 | NALI | ≤ 0.2
120 | NKAT | ≤ 0.2
121 | GFPN | ≤ 0.2
122 | PLLH | ≤ 0.2
123 | GLEG | ≤ 0.2
124 | QTYE | ≤ 0.2
125 | RAEY | ≤ 0.2

Row | Variant | one-hybrid fitness for binding NBS DNA
126 | PTFN | ≤ 0.2
127 | QIST | 0.311
128 | AKCH | ≤ 0.2
129 | VVRF | ≤ 0.2
130 | RLEK | ≤ 0.2
131 | CFNR | ≤ 0.2
132 | MVAT | ≤ 0.2
133 | KSQF | ≤ 0.2
134 | MSLS | ≤ 0.2
135 | VQNS | ≤ 0.2
136 | SDHA | ≤ 0.2
137 | LLMV | ≤ 0.2
138 | WMSS | ≤ 0.2
139 | EPEL | ≤ 0.2
140 | CVGT | ≤ 0.2
141 | QYQA | 0.305
142 | HVQC | ≤ 0.2
143 | TCVL | ≤ 0.2
144 | STCL | ≤ 0.2
145 | YQNS | ≤ 0.2
146 | AHRS | ≤ 0.2
147 | TARV | ≤ 0.2
148 | RRYG | 0.331
149 | NKHS | ≤ 0.2
150 | TRLL | ≤ 0.2

Row | Variant | one-hybrid fitness for binding NBS DNA
151 | LKNF | ≤ 0.2
152 | TNYM | ≤ 0.2
153 | QSEY | ≤ 0.2
154 | RTPH | ≤ 0.2
155 | SIVT | ≤ 0.2
156 | YVFT | ≤ 0.2
157 | MAQR | ≤ 0.2
158 | VADM | ≤ 0.2
159 | VAER | ≤ 0.2
160 | LVVF | ≤ 0.2
161 | FMAS | ≤ 0.2
162 | AVEG | ≤ 0.2
163 | LDQR | ≤ 0.2
164 | EKHY | ≤ 0.2
165 | VCPC | ≤ 0.2
166 | TTFS | ≤ 0.2
167 | QNCN | ≤ 0.2
168 | GIVG | ≤ 0.2
169 | PQND | ≤ 0.2
170 | EFRY | ≤ 0.2
171 | QQDK | ≤ 0.2
172 | MSVG | ≤ 0.2
173 | RRFG | 0.279
174 | LLAI | ≤ 0.2
175 | ASAS | ≤ 0.2

Row | Variant | one-hybrid fitness for binding NBS DNA
176 | GHQR | ≤ 0.2
177 | YALC | ≤ 0.2
178 | NALA | ≤ 0.2
179 | MPRS | ≤ 0.2
180 | LCVN | ≤ 0.2
181 | YVET | ≤ 0.2
182 | VANS | ≤ 0.2
183 | RVAF | ≤ 0.2
184 | RHKK | 0.208
185 | PQWG | ≤ 0.2
186 | RNCG | ≤ 0.2
187 | ALPE | ≤ 0.2
188 | SEDR | ≤ 0.2
189 | HKNP | ≤ 0.2
190 | VTCK | ≤ 0.2
191 | QWTM | ≤ 0.2
192 | SNGA | ≤ 0.2
193 | NAIM | ≤ 0.2
194 | DFHC | ≤ 0.2
195 | WDRG | ≤ 0.2
